Assay results from US9232799B2, “N-[(het)arylethyl)] pyrazole(thio)carboxamides and their heterosubstituted analogues” (BAYER INTELLECTUAL PROPERTY GMBH, priority 2010, dated 2016).

Assays:
Fusarium graminearum = assay: microbe, parasite or virus in culture; details: for inhibition at 50 µM: Fusarium graminearum, read-out: % inhibition fungal growth
Protocol: Compounds were tested in microtiter plates in DON-inducing liquid media (1 g (NH4)2HPO4, 0.2 g MgSO4×7H2O, 3 g KH2PO4, 10 g Glycerin, 5 g NaCl and 40 g Sachharose per liter), supplemented with 10% oat extract, containing 0.5% DMSO, inoculated with a concentrated spore suspension of Fusarium graminearum to a final concentration of 2000 spores/ml.
The plate was covered and incubated at high humidity at 28° C. for 7 days.
At start and after 3 days OD measurement at OD620 multiple read per well (square: 3×3) was taken to calculate the growth inhibition.

Fusarium proliferatum = assay: microbe, parasite or virus in culture; details: for inhibition at 50 µM: read-out: % inhibition fungal growth
Protocol: Compounds were tested in microtiter plates in fumonisin-inducing liquid media (0.5 g malt extract, 1 g yeast extract, 1 g bacto peptone, 20 g Fructose,1 g KH2PO4, 0.3 g MgSO4×7H2O, 0.3 g KCl, 0.05 g ZnSO4×7H2O and 0.01 g CuSO4×5H2O per liter) containing 0.5% DMSO, inoculated with a concentrated spore suspension of Fusarium proliferatum to a final concentration of 2000 spores/ml.
Plates were covered and incubated at high humidity at 20° C. for 5 days
At start and after 5 days OD measurement at OD620 multiple read per well (square: 3×3) was taken to calculate growth inhibition.

| SMILES | % inhibition fungal growth (Fusarium graminearum) | inhibition at 50 µM (Fusarium proliferatum) | inhibition at 50 µM (Fusarium graminearum) | % inhibition fungal growth (Fusarium proliferatum; dose 50 μM, table O) |
| --- | --- | --- | --- | --- |
| CC(Cc1ccc(Cl)cc1)N(C(=O)c1c(C(F)F)nn(C)c1F)C1CC1 (stereo not shown) [Example 55] | 0% | – | – | – |
| COC(c1ccc(Cl)cc1Cl)C(C)NC(=O)c1c(C(F)F)nn(C)c1F (stereo not shown) [Example 73, N-[1-(2,4-dichlorophenyl)-1-methoxypropan-2-yl]-3-(difluoromethyl)-5-fluoro-1-methyl-1H-pyrazole-4-carboxamide] | – | 86% | 100% | – |
| Cn1nc(C(F)F)c(C(=O)NC(C)(C)C(=O)c2ccc3ccccc3c2)c1F [Example 160] | 89% | – | – | – |
| Cn1nc(C(F)F)c(C(=O)NCCc2ncc(C(F)(F)F)cc2Cl)c1F [Example 187] | 85% | – | – | 75% |
| CC(Cc1ncc(C(F)(F)F)cc1Cl)N(C(=O)c1c(C(F)F)nn(C)c1F)C1CC1 (stereo not shown) [Example 188, N-{1-[3-chloro-5-(trifluoromethyl)pyridin-2-yl]propan-2-yl}-N-cyclopropyl-3-(difluoromethyl)-5-fluoro-1-methyl-1H-pyrazole-4-carboxamide] | – | 74% | 95% | – |
| CC(Cc1ncc(C(F)(F)F)cc1Cl)NC(=O)c1c(C(F)F)nn(C)c1F (stereo not shown) [Example 190, N-{1-[3-chloro-5-(trifluoromethyl)pyridin-2-yl]propan-2-yl}-3-(difluoromethyl)-5-fluoro-1-methyl-1H-pyrazole-4-carboxamide] | – | 74% | 96% | – |
